Measured values: a compilation of properties of binary mixtures (doi:10.1016/j.molliq.2010.01.009)
Some of these densities may be calculated back from excess volumes.

Assay: xn = mol fraction of the nth substance listed
Details: 101 kPa

Q: Which mass density (298.15 K, x1 = 0.0949) does the source give for COCCOCCO + CCCC[n+]1ccn(C)c1.F[P-](F)(F)(F)(F)F here?
A: 1348.6 kg/m3

Q: What about the mass density (298.15 K, x1 = 0.1547) of the same compound?
A: 1336 kg/m3

Q: What about the mass density (298.15 K, x1 = 0.2789) of the same compound?
A: 1307.7 kg/m3

Q: What about the mass density (298.15 K, x1 = 0.4155) of the same compound?
A: 1271.8 kg/m3

Q: And the mass density (298.15 K, x1 = 0.5056)?
A: 1245 kg/m3

Q: What about the mass density (298.15 K, x1 = 0.68) of the same compound?
A: 1183.9 kg/m3

Q: What about the mass density (298.15 K, x1 = 0.7576) of the same compound?
A: 1151.8 kg/m3

Q: And the mass density (298.15 K, x1 = 0.8526)?
A: 1106.2 kg/m3

Q: And the mass density (298.15 K, x1 = 0.9308)?
A: 1061.7 kg/m3

Q: And the mass density (298.15 K, x1 = 0.9598)?
A: 1043 kg/m3

Q: What about the mass density (298.15 K, x1 = 1) of the same compound?
A: 1014.9 kg/m3

Q: And the mass density (298.15 K, x2 = 0.0158)?
A: 1026.2 kg/m3

Q: What about the mass density (308.15 K, x1 = 0.0949) of the same compound?
A: 1340.2 kg/m3

Q: What about the mass density (308.15 K, x1 = 0.2789) of the same compound?
A: 1299.3 kg/m3

Q: And the mass density (308.15 K, x1 = 0.4155)?
A: 1263.5 kg/m3

Q: What about the mass density (308.15 K, x1 = 0.5799) of the same compound?
A: 1212.1 kg/m3

Q: What about the mass density (308.15 K, x1 = 0.68) of the same compound?
A: 1175.4 kg/m3

Q: What about the mass density (308.15 K, x1 = 0.8526) of the same compound?
A: 1097.5 kg/m3

Q: What about the mass density (308.15 K, x1 = 0.9308) of the same compound?
A: 1052.8 kg/m3

Q: And the mass density (308.15 K, x1 = 0.9598)?
A: 1034.2 kg/m3

Q: What about the mass density (308.15 K, x2 = 0.0094) of the same compound?
A: 1012.9 kg/m3

Q: What about the mass density (308.15 K, x2 = 0.0158) of the same compound?
A: 1017.4 kg/m3

Q: What about the mass density (318.15 K, x1 = 0.0949) of the same compound?
A: 1331.7 kg/m3

Q: What about the mass density (318.15 K, x1 = 0.1547) of the same compound?
A: 1319.2 kg/m3

Q: And the mass density (318.15 K, x1 = 0.4155)?
A: 1254.8 kg/m3

Q: And the mass density (318.15 K, x1 = 0.5056)?
A: 1227.9 kg/m3

Q: And the mass density (318.15 K, x1 = 0.5799)?
A: 1203.4 kg/m3

Q: What about the mass density (318.15 K, x1 = 0.68) of the same compound?
A: 1166.6 kg/m3

Q: What about the mass density (318.15 K, x1 = 0.7576) of the same compound?
A: 1134.3 kg/m3

Q: What about the mass density (318.15 K, x1 = 0.8526) of the same compound?
A: 1088.6 kg/m3

Q: And the mass density (318.15 K, x2 = 0.0094)?
A: 1004 kg/m3

Q: For COCCOCCOCCO + CCCC[n+]1ccn(C)c1.F[P-](F)(F)(F)(F)F, which mass density (298.15 K, x1 = 0.1949) is on record?
A: 1321.1 kg/m3

Q: What about the mass density (298.15 K, x1 = 0.3024) of the same compound?
A: 1293.8 kg/m3

Q: What about the mass density (298.15 K, x1 = 0.4159) of the same compound?
A: 1262.8 kg/m3

Q: And the mass density (298.15 K, x1 = 0.5036)?
A: 1237.2 kg/m3

Q: And the mass density (298.15 K, x1 = 0.7104)?
A: 1169 kg/m3

Q: What about the mass density (298.15 K, x1 = 0.8085) of the same compound?
A: 1132.1 kg/m3

Q: And the mass density (298.15 K, x1 = 0.9092)?
A: 1089.3 kg/m3

Q: And the mass density (298.15 K, x1 = 0.9441)?
A: 1073 kg/m3

Q: And the mass density (298.15 K, x1 = 0.9772)?
A: 1056.7 kg/m3

Q: And the mass density (298.15 K, x1 = 1)?
A: 1044.9 kg/m3

Q: What about the mass density (298.15 K, x2 = 0.0095) of the same compound?
A: 1049.9 kg/m3

Q: And the mass density (308.15 K, x1 = 0.0316)?
A: 1351.8 kg/m3

Q: And the mass density (308.15 K, x1 = 0.0902)?
A: 1337.9 kg/m3

Q: What about the mass density (308.15 K, x1 = 0.1949) of the same compound?
A: 1312.7 kg/m3

Q: What about the mass density (308.15 K, x1 = 0.3024) of the same compound?
A: 1285.3 kg/m3

Q: And the mass density (308.15 K, x1 = 0.4159)?
A: 1254.3 kg/m3

Q: What about the mass density (308.15 K, x1 = 0.5036) of the same compound?
A: 1228.6 kg/m3

Q: And the mass density (308.15 K, x1 = 0.6142)?
A: 1193.9 kg/m3

Q: What about the mass density (308.15 K, x1 = 0.7104) of the same compound?
A: 1160.4 kg/m3

Q: And the mass density (308.15 K, x1 = 0.8085)?
A: 1123.5 kg/m3

Q: What about the mass density (308.15 K, x1 = 0.9441) of the same compound?
A: 1064.3 kg/m3

Q: What about the mass density (308.15 K, x1 = 0.9772) of the same compound?
A: 1047.9 kg/m3

Q: And the mass density (308.15 K, x1 = 1)?
A: 1036.1 kg/m3

Q: What about the mass density (308.15 K, x2 = 0.0095) of the same compound?
A: 1041.1 kg/m3

Q: And the mass density (318.15 K, x1 = 0.0316)?
A: 1343.3 kg/m3

Q: And the mass density (318.15 K, x1 = 0.0902)?
A: 1329.4 kg/m3

Q: What about the mass density (318.15 K, x1 = 0.1949) of the same compound?
A: 1304.2 kg/m3

Q: And the mass density (318.15 K, x1 = 0.4159)?
A: 1245.9 kg/m3

Q: And the mass density (318.15 K, x1 = 0.5036)?
A: 1220.1 kg/m3

Q: And the mass density (318.15 K, x1 = 0.6142)?
A: 1185.4 kg/m3

Q: And the mass density (318.15 K, x1 = 0.7104)?
A: 1151.8 kg/m3

Q: What about the mass density (318.15 K, x1 = 0.8085) of the same compound?
A: 1114.8 kg/m3

Q: What about the mass density (318.15 K, x1 = 0.9092) of the same compound?
A: 1071.9 kg/m3

Q: And the mass density (318.15 K, x1 = 0.9772)?
A: 1039.1 kg/m3

Q: And the mass density (318.15 K, x1 = 1)?
A: 1027.3 kg/m3

Q: And the mass density (318.15 K, x2 = 0.0095)?
A: 1032.4 kg/m3
